# Source: PMC4336329 (PLoS ONE, 2015)
# In all, about 310,000 compounds went through this assay and about 2,200 (0.71%) showed an effect of 50% or more. Effects have a minus sign here. The list shows a part of the results. Where a SMILES comes first, the peptide text is derived from it. The star is where a group is joined. Boc = CC(C)(C)OC(=O)*
# Target: human ether-à-go-go-related gene (hERG) potassium channel (human, UniProt Q12809)
# Assay: primary screen, population patch clamp on CHO cells stably expressing hERG
# Chain of human ether-à-go-go-related gene (hERG) potassium channel (Q12809 whole entry, looked up): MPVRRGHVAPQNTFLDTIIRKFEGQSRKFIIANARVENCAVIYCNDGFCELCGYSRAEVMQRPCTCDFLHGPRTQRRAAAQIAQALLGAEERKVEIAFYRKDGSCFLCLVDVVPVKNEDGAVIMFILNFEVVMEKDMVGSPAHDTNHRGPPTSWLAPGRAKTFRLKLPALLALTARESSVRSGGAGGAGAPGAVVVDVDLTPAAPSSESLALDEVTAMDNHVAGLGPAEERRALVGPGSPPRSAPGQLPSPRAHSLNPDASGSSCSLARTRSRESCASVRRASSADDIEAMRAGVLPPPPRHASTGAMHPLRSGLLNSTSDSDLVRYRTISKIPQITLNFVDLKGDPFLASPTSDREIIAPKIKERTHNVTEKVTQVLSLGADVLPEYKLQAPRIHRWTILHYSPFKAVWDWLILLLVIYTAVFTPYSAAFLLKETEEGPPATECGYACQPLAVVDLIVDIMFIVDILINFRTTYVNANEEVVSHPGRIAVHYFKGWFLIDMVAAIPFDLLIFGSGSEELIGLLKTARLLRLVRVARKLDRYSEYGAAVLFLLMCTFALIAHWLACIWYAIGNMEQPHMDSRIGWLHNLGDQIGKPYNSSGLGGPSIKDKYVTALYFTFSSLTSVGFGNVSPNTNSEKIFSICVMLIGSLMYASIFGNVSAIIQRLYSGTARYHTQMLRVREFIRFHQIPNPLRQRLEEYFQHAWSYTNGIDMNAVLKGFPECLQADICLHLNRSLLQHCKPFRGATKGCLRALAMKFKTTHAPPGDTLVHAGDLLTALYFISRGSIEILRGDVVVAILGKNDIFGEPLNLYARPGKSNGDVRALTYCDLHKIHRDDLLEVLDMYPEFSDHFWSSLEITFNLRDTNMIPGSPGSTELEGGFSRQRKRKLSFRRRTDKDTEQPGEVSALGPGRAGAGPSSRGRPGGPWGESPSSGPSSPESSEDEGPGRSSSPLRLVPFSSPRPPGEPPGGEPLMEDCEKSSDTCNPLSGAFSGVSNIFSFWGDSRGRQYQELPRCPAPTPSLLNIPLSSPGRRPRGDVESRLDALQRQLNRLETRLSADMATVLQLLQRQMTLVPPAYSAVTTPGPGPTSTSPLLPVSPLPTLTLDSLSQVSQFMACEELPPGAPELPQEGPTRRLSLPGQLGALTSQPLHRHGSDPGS
row,SMILES,"hERG current change (%, negative = inhibition) at 1uM"
1,CCc1c(C)nc(N)n2c(SCC(=O)N3CCCc4ccccc43)nnc12,4.67%
2,CCOc1ccc(CNc2nc3ccccc3n2C)cc1,8.49%
3,CCOc1cc(S(=O)(=O)N2CCCCC2)ccc1Cl,12%
4,COc1ccc(S(=O)(=O)N(C)c2ccc(C(=O)N3CCCC3)cc2)cc1OC,15.4%
5,Cc1cc(C(=O)N/N=C/c2cccc([N+](=O)[O-])c2)c(C)o1,6.99%
6,CCOCCCn1c(=O)c(NC(=O)c2ccc(OCC)cc2)c2n(c1=S)CCCCC2,7.94%
7,CC(=O)Nc1cccc(NC(=O)CSc2nc3c(c(=O)n(C)c(=O)n3C)n2C)c1,-11%
8,CS(=O)(=O)N(CC(=O)Nc1c(F)cccc1F)Cc1ccccc1,10.3%
9,CC1(C)CC(=O)c2c(Cc3ccccc3)noc2C1,8.4%
10,CCOC(=O)CCCCNCc1ccccc1.Cl,-0.854%
11,O=C(COC(=O)/C=C/c1cccc(Cl)c1)NCCC1=CCCCC1,-10.2%
12,Cc1c(Cl)ccc(S(=O)(=O)Nc2cccnc2)c1Cl,13.8%
13,CCOC(=O)CC1Sc2ccccc2NC1=S (centres unmarked),9.88%
14,CCOC(=O)C1=C(C)C(c2cccc(Oc3ccccc3)c2)NC(=S)N1 (centres unmarked),6.73%
15,CCOC(=O)c1cc2sccc2n1CC(=O)N1c2ccccc2CC1C (centres unmarked),7.07%
16,Nc1nonc1-c1nc2ccccc2n1Cc1ccc(Cl)cc1,-7.76%
17,O=C(Nc1ccc(F)cc1F)N1CCCN(CCOc2ccccc2)CC1,-19.7%
18,CCOC(=O)N1CCN(C(=O)C2COc3ccccc3O2)CC1 (centres unmarked),9.53%
19,O=C(c1ccc(C(F)(F)F)cc1)N1CCC(=O)N(C(CO)Cc2ccccc2)CC1 (centres unmarked),9.19%
20,Cc1ccc(C(=O)c2ccccc2C(=O)OCC(=O)NCC2CCCO2)cc1 (centres unmarked),9.58%
21,COC(=O)CCc1nc2cc(Cl)ccc2n(Cc2ccccc2)c1=O,-8.16%
22,COc1ccccc1NC(=O)C(C)NS(=O)(=O)c1ccc(F)cc1 (centres unmarked),4.97%

row,SMILES,"hERG current change (%, negative = inhibition) at 1uM"
1,O=C(NCc1ccc(F)cc1)C(c1cccs1)N(C(=O)c1csnn1)C1CC1 (centres unmarked),2.42%
2,CCOc1ccccc1NC(C)C(=O)Nc1cc(C(F)(F)F)ccc1N1CCOCC1 (centres unmarked),6.81%
3,O=C(c1ccc2c(c1)OCO2)N1CCN(C(=O)c2ccco2)CC1,3.8%
4,Cc1ccc(-c2n[nH]c(=S)n2/N=C/c2ccncc2)cc1,14.3%
5,C[C@@H]1CC[C@]2(O[C@@H](CCO)C[C@@H](O)[C@@H]2O)O1,12.9%
6,O=C(Cn1cnc(S(=O)(=O)N2CCCCC2)c1)Nc1ccc(OC(F)(F)F)cc1,11.7%
7,O=C(NCCN1CCCCC1)Nc1ccc(Cl)cc1,-4.04%
8,Cc1cccc2nc(C(=O)Nc3cccc(C(=O)NC4CC4)c3)cn12,12.4%
9,O=C(NN1CCCCC1)c1ccc(COc2ccc(Cl)cc2)cc1,3.04%
10,O=C(CC1COc2ccccc2O1)NC1CCCCC1 (centres unmarked),12.4%
11,COc1cc(C(C)=O)ccc1Oc1ncccn1,13.3%
12,COc1ccc(NC(=O)CCCn2cnc3ccccc3c2=O)c(OC)c1,-2.39%
13,Cc1ccc(C(=O)NN2C(=O)C3C4c5ccccc5C(c5ccccc54)C3C2=O)cc1 (centres unmarked),3.88%
14,CC(C)CCn1c(Sc2nc3ccccc3s2)nc2c1c(=O)[nH]c(=O)n2C,6.6%
15,COc1ccc(C(=O)O)cc1S(=O)(=O)Nc1cc(Cl)ccc1N1CCOCC1,11.8%
16,O=C(CCNC(=O)Cn1ccc2ccccc2c1=O)NCCC1=CCCCC1,-18.1%
17,CN(C)c1ccc(C(CNC(=O)c2ccccc2Br)c2c[nH]c3ccccc23)cc1 (centres unmarked),7.31%
18,NCCCC[C@@H]1NC(=O)c2cc([N+](=O)[O-])cc(F)c2NCCCC[C@@H](C(N)=O)NC(=O)[C@H](CCC(N)=O)NC1=O,10.5%
19,CCc1ccc2nc(N(CCCN(C)C)C(=O)c3ccc(S(=O)(=O)N(C)C4CCCCC4)cc3)sc2c1.Cl,9.37%
20,O=C(Nc1ccc(S(=O)(=O)Nc2ncccn2)cc1)c1cnc(Cl)c(Cl)c1,8.48%
21,NC(=O)NC(CC(=O)NNC(=O)c1ccccn1)c1ccccc1Cl (centres unmarked),6.66%
22,O=C(CCSCc1ccccc1Cl)NCc1ccco1,27.8%

row,SMILES,"hERG current change (%, negative = inhibition) at 1uM"
1,CN1CCN(S(=O)(=O)c2ccc(N3CCc4ccccc4C3)nc2)CC1,15.3%
2,COCCCNc1nc2c(-c3cccc(C(F)(F)F)c3)nnn2c2ccccc12,0.0351%
3,O=c1/c(=C/c2ccc(O)cc2)sc2nc3cc(Br)cnc3n12,15%
4,CCN1C(=O)[C@H]2[C@@H](c3ccccc3)N3C(=O)N(c4cccc(F)c4)C(=O)[C@@]3(CC(C)C)[C@H]2C1=O,13.7%
5,Cc1ccc(Nc2nc3c(c(=O)[nH]2)CCCC3)cc1,0.195%
6,Cc1nn(Cc2ccc([N+](=O)[O-])cc2)c(=O)n1N(C)c1ncc(C(F)(F)F)cc1Cl,4.87%
7,CCOC(=O)NC1c2ccccc2Oc2ccccc21,2.59%
8,Nc1nonc1-n1nnc(C(=O)N/N=C/c2ccccc2Br)c1CN1CCCC1,13.3%
9,CCCNC(=S)N1CCC(NC(=O)c2ccc(OC)cc2)CC1,6.64%
10,CC(=O)Nc1ccc(S(=O)(=O)n2cnc3cc(C)c(C)cc32)cc1,13.3%
11,O=C1ON=C(c2ccccc2)/C1=C/c1ccccc1,10.9%
12,O=C(COC(=O)c1ccc(N2CCCC2=O)cc1)NCc1ccco1,3.17%
13,COc1ccc(C(CNC(=O)c2cccc(NC(=O)c3cccs3)c2)N2CCCC2)cc1 (centres unmarked),-35.9%
14,CCCCNC(=O)CCNS(=O)(=O)c1ccc(C)cc1,6.65%
15,Cc1ccc(N2C(=O)NC(=O)/C(=C\c3cc(C)n(-c4ccc(C(=O)O)cc4)c3C)C2=O)cc1,21.7%
16,CCC(C)C(NC(=O)OC(C)(C)C)C(=O)NC(C(=O)N1CCCC1C(N)=O)C(C)CC (stereo not drawn) (Boc-Ile-Ile-Pro-NH2; configuration not given here),15.5%
17,CCOC(=O)Cn1c(=O)oc2cc(S(=O)(=O)Nc3cccc(C)c3)ccc21,1.47%
18,COc1cccc(N(CC(=O)NC2CCCC2)C(=O)Cn2nnc(-c3ccc(C)o3)n2)c1,8.31%
19,CC(C)(C)c1ccc(OCC(=O)N(Cc2cccs2)C2CCS(=O)(=O)C2)cc1 (centres unmarked),2.59%
20,CCOC(=O)c1c(C)[nH]c(C)c1C(=O)COC(=O)c1cc2ccccc2cc1O,16.1%
21,Cc1ccc(C(=O)NCCn2cc(SCC(=O)Nc3nnc(C)s3)c3ccccc32)cc1,3.12%
22,O=C(NCCCN1CCOCC1)C1CCN(S(=O)(=O)c2cccc(Cl)c2Cl)CC1,13.5%

row,SMILES,"hERG current change (%, negative = inhibition) at 1uM"
1,Cc1ccccc1S(=O)(=O)Cc1ccc(C(=O)NCCCN2CCCC2)o1,9.11%
2,Cc1ccn(CC(=O)N2CCCC(Nc3ccc(F)c(F)c3)C2)n1 (centres unmarked),2.97%
3,CC(=O)N1c2c(cc(Br)cc2S(=O)(=O)Nc2c(C)n(C)n(-c3ccccc3)c2=O)CC1C (centres unmarked),11.5%
4,CCOC(=O)C(Cc1ccc(O)cc1)NC(=O)CNC(=O)C(CC(C)C)NC(=O)OC(C)(C)C (stereo not drawn) (Boc-Leu-Gly-Tyr-OEt; configuration not given here),3.35%
5,N#Cc1c(SCC(=O)N2CCCCC2)nsc1SCC(=O)N1CCCCC1,17.5%
6,CC(C)NC(=O)C(=O)NCC(c1ccc2c(c1)OCO2)N1CCOCC1 (centres unmarked),13.4%
7,CC(C)(C)c1ccc(/C=N/N2C(=O)CSC2=S)cc1,16.4%
8,CCCN1CCC(NC(=O)C2CCN(C(C)=O)CC2)CC1,10.9%
9,CC1CCCC(C)N1C(=O)CNCc1ccc2c(c1)OCO2.O=C(O)C(=O)O (centres unmarked),13%
10,CCSc1ccccc1C(=O)NCCCn1ccnc1,15.9%
11,COC(=O)C1=C(C)NC(=O)/C1=C\c1cc(C)n(-c2ccccc2F)c1C,2.89%
12,Cc1cc(-c2nnc3n2CCCCC3)c(C)n1-c1ccccc1,3.35%
13,COc1ccc(S(=O)(=O)N2CCCCCC2)cc1NC(=O)Cc1cc(OC)c(OC)c(OC)c1,10.7%
14,Cc1ccc(NC2=NCC(=O)N2c2ccc3c(c2)OCCO3)c(C)c1,13.1%
15,C/C(=C\C(=O)c1ccc(C)o1)Nc1ccc2c(c1)OCO2,14.6%
16,CCOC(=O)Cc1csc(NC(=O)Cn2cnc3c2c(=O)n(C)c(=O)n3C)n1,10.1%
17,CCNC(=S)N1CC(C)OC(C)C1 (centres unmarked),9.43%
18,S=P(Nn1cnnc1)(c1ccccc1)c1ccccc1,11.4%
19,CSc1ccccc1NC(=O)c1ccoc1C,-6.56%
20,COc1ccc(C2C(C#N)=C(N)OC(C(C)(C)C)=C2C#N)cc1OC (centres unmarked),-23.3%
